From article PMC12136788 come the findings set out here.

Some of the results follow.

B1: 104814329_104835678_237_CDS_ENSMUSG00000062127_ENSMUST00000098763|mouse|control|control (ssRNA)
RNA: GGGAGUUCUACAGUCCGACGAUCUCUGUGUUGGGCCUUUAAAGCUUCUAUAACAAGGUCUCUUGCUUCAAGUUCUCCUUCAAGGAUACUGAACAGUGUCAGGAGUUCAGGCUUGCUGAGUUUUUCCAGAUUCAUCCUGAAAGUCAACAGAGGAUUGAGCAUCA
B2: chr16:1859243:1859244:-_ENSG00000063854_ENST00000397353|hu_hu|motif|central (ssRNA)
RNA: GGGAGUUCUACAGUCCGACGAUCAUCAAGACUGAAUUUCCCGCACGGACCAGCAGGAAAGCCAGUUACCUAAAAGAGCCGGAUCCCCAAAUCCGCUGAAGGUGCAGGGCGGCCUCAGUCCCGGGGCAUCUUGAACUGGUCCUUCAACAGAGGAUUGAGCAUCA
B3: 109521426_109522411_510_CDS_ENSMUSG00000020612_ENSMUST00000049527|mouse|control|control (ssRNA)
RNA: GGGAGUUCUACAGUCCGACGAUCCAGCACAUUCUUUUCGAUGGCCUUGGCUAAAGCAGCCAUUGUCUUAUAAUCUUUUGGAAUAACCUUUCUAACGUAGGAGGCAGCAUCCUCCUCAGUGUAAACUUCAGCACUGAUAGCACCCAACAGAGGAUUGAGCAUCA
B4: chr16:2758876:2758877:+_ENSG00000167977_ENST00000301738|hu_hu|motif|central (ssRNA)
RNA: GGGAGUUCUACAGUCCGACGAUCAAUUUUAGUGAAUUAAGUCUUAAUAUCUUUAAAUUAAAAAAACCACAAGCCGGUCGGCGGUGUCAAGGUCAAAAAUCAAACAACGCUAAGCGGCCAGCAGCUCCCCAGAGAGGAUGCCCACAACAGAGGAUUGAGCAUCA
B5: chr9:49312907:49312908:-_ENSMUSG00000039542_ENSMUST00000166811|mus_hu|FALSE|FALSE (ssRNA)
RNA: GGGAGUUCUACAGUCCGACGAUCAGCUGCAAUUUGGCAUUCGUCCUAUAAAAUAAGAGUCUACGUGGGAAUUGAAUUCAGCUAGAAAGGGUGACACACUUUGCAUACUGAACAAAUACAAAGUGAACAGAAAUUAUAACUUAUCAACAGAGGAUUGAGCAUCA
B6: chr3:179287964:179287965:+_ENSG00000136518_ENST00000429709|hu_hu|hu_hu_hu_mus_True|68_108 (ssRNA)
RNA: GGGAGUUCUACAGUCCGACGAUCCUUUAGAGGUGAAAUGGCCUCCAUGUUCUCCCUGGGCACGCGGAGAGCAUUAGUGUCUAUGUAGUAGGUGGGCCCGCCCUGCUUGCCUUUGUCACCAUCAAUCUCCAUCAUUGUACUUCCCAACAGAGGAUUGAGCAUCA
B7: chr10:33190432:33190433:-_ENSG00000150093_ENST00000302278|hu_mus|FALSE|FALSE (ssRNA)
RNA: GGGAGUUCUACAGUCCGACGAUCUACAUUUUCCAAACCUGCAUGUGAAUAAAACCCUGGCCACAGAGCCCCAAAACUACCCUACUGUGACUAAGAUGCUGCUGCUGUGAGCUUGGUGUUGCAAAAUCCGCCUGAGUAGGAUUCCAACAGAGGAUUGAGCAUCA
B8: chr7:150775722:150775723:-_ENSG00000164896_ENST00000297532|hu_mus|FALSE|FALSE (ssRNA)
RNA: GGGAGUUCUACAGUCCGACGAUCUUCCUGAACCACCAGGAAAUGAGCAAUGGCUUCCAGAAGUUGGGGUUCCCGCAAGCGGUGCCGGGCCAGGUGUUGGGCCAGAAGCACCAUUACGUGAGGAGUCAGUUCUUCUGGCCUUGCCAACAGAGGAUUGAGCAUCA
B9: chr7:141441981:141441982:+_ENSG00000106028_ENST00000265304|hu_mus|hu_hu_hu_mus_False|58_88 (ssRNA)
RNA: GGGAGUUCUACAGUCCGACGAUCCUCAUGUCUUACAAACUGACGAAGUACCUGUAACACAGGUCUUCGAAACAUGGCUUCUAUUUUUCUUACAACCUAAUCUUUAGGCUUUUCCUAAAGGAAAGAAAGAAAAGAGAAAAAUGACAACAGAGGAUUGAGCAUCA
B10: chr18:35732517:35732518:+_ENSMUSG00000037236_ENSMUST00000166793|mus_mus|motif|central (ssRNA)
RNA: GGGAGUUCUACAGUCCGACGAUCUAUAGAGCACAGAUGGGGAUAACCCUUCGGUAAGAGUCCAUGGAAGUCUUCAAUAUUGCGGCUUGGAGGAGCGCCCCUCUUUUUCUCAAAGAGAGAUCUCUCUUGUAAGGGGCCAGGACCCAACAGAGGAUUGAGCAUCA
B11: chr7:135612270:135612271:-_ENSG00000105887_ENST00000393085|hu_mus|hu_hu_hu_mus_False|38_108 (ssRNA)
RNA: GGGAGUUCUACAGUCCGACGAUCGUUUCUGAGAUGUAUGUUAAAUAGUACUUCAGUGGAAAACAAAACUUAACCUUUUAUUAAUGCGUGUUGUACCAGAAAGCAAAAUUUUAGCUUCAUUUAUUCAAAAAUAUUAACAUUAAGCAACAGAGGAUUGAGCAUCA
B12: 143155553_143155673_4980_3pUTR_ENSMUSG00000030275_ENSMUST00000032413|mouse|control|control (ssRNA)
RNA: GGGAGUUCUACAGUCCGACGAUCUGGACUGAAAUUCCAGAAAUGGGGAUGUUUUGUCUGGAGCAGCUGAUAGCAUUUGUCAAACCCAAGACUGAACACUGCUGUCACUGUGGGGAAAGGCGGCUCACCACCUACUCAGAACAGCAACAGAGGAUUGAGCAUCA
B13: chr7:151048522:151048523:+_ENSG00000013374_ENST00000566856|hu_mus|hu_hu_hu_mus_True|1_38 (ssRNA)
RNA: GGGAGUUCUACAGUCCGACGAUCCUGUUUCUUAUUUAUUACGAUCUUGAUGUAAUUUUCUUGAAAUCCGAAAGUUUCAGCUAUUUGACACCUCAGGUCUCUGCCAGUGACAUGCAAGCGGGUCUCCAACAAGCUUUUCCUAUCCAACAGAGGAUUGAGCAUCA
B14: chrX:103217195:103217196:+_ENSMUSG00000031231_ENSMUST00000033582|mus_hu|FALSE|FALSE (ssRNA)
RNA: GGGAGUUCUACAGUCCGACGAUCCAUAUCUUAAUGGGUACACAGUGCUUUAAUUUGGCAUCAAUUAUGAGCUGUUUUUUAAACAAUUCAUUAUUACACCAGCUGGGAUGAUUACUGAUUCCUCCAUUCCUUUGGGGUAACUCUCAACAGAGGAUUGAGCAUCA

For this assay, the target named is T1, UNK ZnF1-3 (human, UniProt Q9C0B0 31-174).
T1 sequence: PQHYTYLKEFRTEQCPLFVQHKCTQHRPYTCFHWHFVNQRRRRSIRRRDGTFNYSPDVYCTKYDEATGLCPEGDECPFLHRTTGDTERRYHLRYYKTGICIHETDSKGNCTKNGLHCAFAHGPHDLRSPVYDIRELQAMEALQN
Description: nsRBNS (natural sequence RNA bind-n-seq); RBNS binding buffer (assumed for nsRBNS): 25 mM Tris pH 7.5, 150 mM KCl, 3 mM MgCl2, 0.01% Triton X-100, 500 ug/ml BSA, 20 U/ml SUPERase-In, 4 C; UNK is unkempt and MSI1 is Musashi-1; names of the RNAs are library labels; protein concentration not given here; high values mean tight binding.
In the case of B1, the binding signal was found to be 0.475 enrichment R. Turning to B2, the binding signal was determined as 0.806 enrichment R.

As to B3, the binding signal was found to be 0.896 enrichment R. Then B4, with 2.66 enrichment R; and B5, with 2.44 enrichment R. With B6, the binding signal was 0.833 enrichment R.

B7 showed a binding signal of 1.28 enrichment R.

Turning to B8, the binding signal worked out at 1.07 enrichment R. With B9 the figure was 0.614 enrichment R; with B10, 0.698 enrichment R. Then B11, with 1.62 enrichment R.

As for B12, the binding signal is 1.33 enrichment R. With B13 the figure was 0.757 enrichment R; with B14, 0.481 enrichment R.
